Measured values taken from PMC3781053, “Von Willebrand Factor Inhibits Mature Smooth Muscle Gene Expression through Impairment of Notch Signaling” (PLoS ONE, 2013).

Biological target: T1, purified human von Willebrand factor (Factor VIII-free) (human, UniProt P04275 764-2813, Alexa 700 succinimide label where used as the labelled probe; unlabeled where coated or used as competitor)
T1 construct: von Willebrand factor, human, purified, free of Factor VIII; The supplier's vWF is plasma-derived as far as I recall; also called vWF; purified vWF; source: bought: Haematologic Technologies (Factor VIII-free)
Experiment: solid phase binding assay; Figure 9C; wells coated with purified vWF (200 ng/ml), probed with Alexa 700-labelled rat Jagged1-Fc or control Fc; TBS with 2 mM CaCl2 and 0.05% Tween 20, overnight; LiCor infrared scanner
Conditions: both partners purified

B1: rat Jagged1-Fc (Fc fusion)
chain: [about 750 residues left out]QNTNDCSPHPCYNSGTCVDGDNWYRCECAPGFAGPDCRININECQSSPCAFGATCVDEINGYQCICPPGHSGAKCHEVSGRSCITMGRVILDGAKWDDDCNTCQCLNGRVACSKVWCGPRPCRLHKGHGECPNGQSCIPVLDDQCFVRPCTGAGECRSSSLQPVKTKCTSDSYYQDNCANITFTFNKEMMSPGLTTEHICSELRNLNILKNVSAEYSIYIACEPSLSANNEIHVAISAEDIRDDGNPVKEITDKIIDLVSKRDGNSSLIAAVAEVRVQRRPLKNRTD
modifications: Alexa 700 succinimide label where used as the labelled probe; unlabeled where coated
notes: Jagged1, rat; The R&D Systems rat Jagged 1 Fc chimera holds the extracellular domain as I recall; also called Jagged-Fc; source: bought: R&D Systems
binding result: binds
